Reference: the supplement of paper PMC4967469
The IC50 comes from the fitted curve, where viability falls to half of the control; where the fit passes the top or lowest dose, that dose stands as a limit. AUC sums up the same curve from the lowest dose to the 256-fold higher top dose; the more sensitive the line, the further below 1. For some of these results: An inferred top dose was calculated from the reported fits. For some of these results: An entry number marks a drug with two screens in the source, which often give different values.

Legend:
Test in all cases: Viability of human cancer cell lines after 72 h of drug (GDSC screen)
Cyclopamine = compound: CC1=C2C[C@H]3[C@@H](CC=C4C[C@@H](O)CC[C@@]43C)[C@@H]2CC[C@]12O[C@@H]1C[C@H](C)CN[C@H]1[C@H]2C [Cyclopamine]; settings: top dose 16 µM; top dose inferred
Experimental: (§1)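 Human cancer cell lines in 384-well plates, medium with 10% serum, drug for 72 h over a 256-fold dose range (nine 2-fold or five 4-fold steps up to the top dose). Adherent lines were fixed and stained with the nucleic acid dye Syto60, suspension lines read with resazurin; signal relative to control wells, capped at 0 and 100%. One two-parameter sigmoid per drug and line, fitted in a mixed model over all curves with the slope shared within a line.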

CGP-60474 = compound: OCCCNc1cc(-c2ccnc(Nc3cccc(Cl)c3)n2)ccn1 [CGP-60474]; settings: top dose 0.256 µM; top dose inferred
Experimental: as §1

JNJ-26854165 = compound: c1ccc2c(CCNc3ccc(Nc4ccncc4)cc3)c[nH]c2c1 [JNJ-26854165]; settings: top dose 10 µM
Experimental: as §1

JQ1 = compound: Cc1sc2c(c1C)C(c1ccc(Cl)cc1)=N[C@@H](CC(=O)OC(C)(C)C)c1nnc(C)n1-2 [JQ1]
Experimental: as §1

YM155 = compound: COCC[n+]1c2c(n(Cc3cnccn3)c1C)C(=O)c1ccccc1C2=O [YM155]; settings: top dose 5.12 µM
Experimental: as §1

OSI-906 = compound: C[C@]1(O)C[C@@H](c2nc(-c3ccc4ccc(-c5ccccc5)nc4c3)c3c(N)nccn32)C1 [OSI-906]; settings: top dose 2.56 µM; top dose inferred
Experimental: as §1

Belinostat = compound: O=C(/C=C/c1cccc(S(=O)(=O)Nc2ccccc2)c1)NO [Belinostat]; settings: top dose 20 µM; top dose inferred
Experimental: as §1

SB-715992 = compound: Cc1ccc(C(=O)N(CCCN)[C@@H](c2nc3cc(Cl)ccc3c(=O)n2Cc2ccccc2)C(C)C)cc1 [SB-715992]; settings: top dose 0.128 µM; top dose inferred
Experimental: as §1

FTI-277 = compound: COC(=O)[C@H](CCSC)NC(=O)c1ccc(NC[C@@H](N)CS)cc1-c1ccccc1 [FTI-277]; settings: top dose 1.024 µM; top dose inferred
Experimental: as §1

JNK Inhibitor VIII = compound: CCOc1nc(NC(=O)Cc2cc(OC)ccc2OC)cc(N)c1C#N [JNK Inhibitor VIII]; settings: top dose 10 µM; top dose inferred
Experimental: as §1

AMG-706 = compound: CC1(C)CNc2cc(NC(=O)c3cccnc3NCc3ccncc3)ccc21 [AMG-706]; settings: top dose 2 µM; top dose inferred
Experimental: as §1

NSC-207895 = compound: CN1CCN(c2ccc([N+](=O)[O-])c3no[n+]([O-])c23)CC1 [NSC-207895]; settings: top dose 20 µM; top dose inferred
Experimental: as §1

Docetaxel = compound: CC(=O)O[C@@]12CO[C@@H]1C[C@H](O)[C@@]1(C)C(=O)[C@H](O)C3=C(C)[C@@H](OC(=O)[C@H](O)[C@@H](NC(=O)OC(C)(C)C)c4ccccc4)C[C@@](O)([C@@H](OC(=O)c4ccccc4)[C@H]21)C3(C)C [Docetaxel]; settings: top dose 0.0125 µM
Experimental: as §1

[1] = top dose 1 µM, screen: GDSC drug entry 1218, top dose inferred
[2] = top dose 2.56 µM, screen: GDSC drug entry 163

## NCI-H128 (small cell lung carcinoma, suspension)
Cyclopamine
  AUC: 0.969
  IC50: > 16000 nM
CGP-60474
  AUC: 0.875
  IC50: > 256 nM

## NCI-H2227 (small cell lung carcinoma, semi-adherent)
JNJ-26854165
  AUC: 0.986
  IC50: > 10000 nM
JQ1; [1]
  AUC: 0.973
  IC50: > 1000 nM
JQ1; [2]
  AUC: 0.969
  IC50: > 2560 nM
YM155
  AUC: 0.036
  IC50: < 20 nM
OSI-906
  AUC: 0.983
  IC50: > 2560 nM
Belinostat
  AUC: 0.137
  IC50: < 78.1 nM
SB-715992
  AUC: 0.724
  IC50: 38 nM
Cyclopamine
  AUC: 0.983
  IC50: > 16000 nM
FTI-277
  AUC: 0.976
  IC50: > 1020 nM
JNK Inhibitor VIII
  AUC: 0.985
  IC50: > 10000 nM
AMG-706
  AUC: 0.986
  IC50: > 2000 nM
NSC-207895
  AUC: 0.749
  IC50: 7260 nM
Docetaxel
  AUC: 0.852
  IC50: 11.7 nM

## RC-K8 (B-cell lymphoma, suspension)
JNJ-26854165
  AUC: 0.981
  IC50: > 10000 nM
JQ1; [1]
  AUC: 0.969
  IC50: > 1000 nM
JQ1; [2]
  AUC: 0.935
  IC50: > 2560 nM
YM155
  AUC: 0.301
  IC50: 96.5 nM
OSI-906
  AUC: 0.993
  IC50: > 2560 nM
Belinostat
  AUC: 0.577
  IC50: 1970 nM
SB-715992
  AUC: 0.993
  IC50: > 128 nM
Cyclopamine
  AUC: 0.992
  IC50: > 16000 nM
FTI-277
  AUC: 0.993
  IC50: > 1020 nM
JNK Inhibitor VIII
  AUC: 0.99
  IC50: > 10000 nM
AMG-706
  AUC: 0.992
  IC50: > 2000 nM
NSC-207895
  AUC: 0.942
  IC50: > 20000 nM
Docetaxel
  AUC: 0.991
  IC50: > 12.5 nM

## SIG-M5 (acute myeloid leukaemia, suspension)
JQ1; [2]
  AUC: 0.263
  IC50: 41.7 nM
YM155
  AUC: 0.019
  IC50: < 20 nM
Belinostat
  AUC: 0.11
  IC50: 119 nM
Cyclopamine
  AUC: 0.99
  IC50: > 16000 nM
FTI-277
  AUC: 0.984
  IC50: > 1020 nM
CGP-60474
  AUC: 0.61
NSC-207895
  AUC: 0.795
  IC50: 6800 nM

## SK-MEL-2 (melanoma, adherent)
JNJ-26854165
  AUC: 0.864
JQ1; [1]
  AUC: 0.984
  IC50: > 1000 nM
JQ1; [2]
  AUC: 0.873
  IC50: > 2560 nM
YM155
  AUC: 0.288
  IC50: 78.5 nM
OSI-906
  AUC: 0.85
  IC50: 2070 nM
Belinostat
  AUC: 0.626
  IC50: 2830 nM
SB-715992
  AUC: 0.906
  IC50: > 128 nM
FTI-277
  AUC: 0.986
  IC50: > 1020 nM
CGP-60474
  AUC: 0.897
  IC50: > 256 nM
JNK Inhibitor VIII
  AUC: 0.928
  IC50: > 10000 nM
AMG-706
  AUC: 0.965
  IC50: > 2000 nM
NSC-207895
  AUC: 0.984
  IC50: > 20000 nM
Docetaxel
  AUC: 0.697
  IC50: 2.87 nM

## TK (B-cell lymphoma, suspension)
JNJ-26854165
  AUC: 0.908
  IC50: > 10000 nM
JQ1; [1]
  AUC: 0.983
  IC50: > 1000 nM
JQ1; [2]
  AUC: 0.955
  IC50: > 2560 nM
YM155
  AUC: 0.311
  IC50: 99.7 nM
OSI-906
  AUC: 0.776
  IC50: 927 nM
Belinostat
  AUC: 0.266
  IC50: 289 nM
SB-715992
  AUC: 0.631
  IC50: 17.7 nM
Cyclopamine
  AUC: 0.987
  IC50: > 16000 nM
FTI-277
  AUC: 0.967
  IC50: > 1020 nM
JNK Inhibitor VIII
  AUC: 0.99
  IC50: > 10000 nM
AMG-706
  AUC: 0.99
  IC50: > 2000 nM
NSC-207895
  AUC: 0.978
  IC50: > 20000 nM
Docetaxel
  AUC: 0.932
  IC50: > 12.5 nM

## UACC-812 (breast, adherent)
JQ1; [2]
  AUC: 0.991
  IC50: > 2560 nM
YM155
  AUC: 0.047
  IC50: < 20 nM
OSI-906
  AUC: 0.991
  IC50: > 2560 nM
Belinostat
  AUC: 0.562
  IC50: 1830 nM
SB-715992
  AUC: 0.989
  IC50: > 128 nM
Cyclopamine
  AUC: 0.991
  IC50: > 16000 nM
FTI-277
  AUC: 0.99
  IC50: > 1020 nM
NSC-207895
  AUC: 0.918
  IC50: > 20000 nM

## WM1552C (melanoma, adherent)
JNJ-26854165
  AUC: 0.925
  IC50: > 10000 nM
JQ1; [1]
  AUC: 0.986
  IC50: > 1000 nM
JQ1; [2]
  AUC: 0.785
  IC50: 1100 nM
YM155
  AUC: 0.135
  IC50: 22.4 nM
OSI-906
  AUC: 0.971
  IC50: > 2560 nM
Belinostat
  AUC: 0.418
  IC50: 744 nM
SB-715992
  AUC: 0.724
  IC50: 34.9 nM
FTI-277
  AUC: 0.95
  IC50: > 1020 nM
JNK Inhibitor VIII
  AUC: 0.986
  IC50: > 10000 nM
AMG-706
  AUC: 0.986
  IC50: > 2000 nM
NSC-207895
  AUC: 0.983
  IC50: > 20000 nM
Docetaxel
  AUC: 0.791
  IC50: 5.67 nM

## WM-115 (melanoma, adherent)
JNJ-26854165
  AUC: 0.945
  IC50: > 10000 nM
JQ1; [1]
  AUC: 0.961
  IC50: > 1000 nM
JQ1; [2]
  AUC: 0.959
  IC50: > 2560 nM
YM155
  AUC: 0.074
  IC50: < 20 nM
OSI-906
  AUC: 0.975
  IC50: > 2560 nM
Belinostat
  AUC: 0.454
  IC50: 913 nM
SB-715992
  AUC: 0.613
  IC50: 17.6 nM
FTI-277
  AUC: 0.978
  IC50: > 1020 nM
JNK Inhibitor VIII
  AUC: 0.979
  IC50: > 10000 nM
AMG-706
  AUC: 0.978
  IC50: > 2000 nM
NSC-207895
  AUC: 0.859
  IC50: > 20000 nM
Docetaxel
  AUC: 0.737
  IC50: 4.39 nM

## YAPC (pancreas, adherent)
JNJ-26854165
  AUC: 0.861
  IC50: > 10000 nM
JQ1; [1]
  AUC: 0.98
  IC50: > 1000 nM
JQ1; [2]
  AUC: 0.903
  IC50: > 2560 nM
YM155
  AUC: 0.209
  IC50: 34.7 nM
OSI-906
  AUC: 0.869
  IC50: > 2560 nM
Belinostat
  AUC: 0.728
  IC50: 6620 nM
SB-715992
  AUC: 0.973
  IC50: > 128 nM
FTI-277
  AUC: 0.979
  IC50: > 1020 nM
JNK Inhibitor VIII
  AUC: 0.982
  IC50: > 10000 nM
AMG-706
  AUC: 0.985
  IC50: > 2000 nM
NSC-207895
  AUC: 0.985
  IC50: > 20000 nM
Docetaxel
  AUC: 0.818
  IC50: 9.37 nM

## huH-1 (liver, adherent)
JNJ-26854165
  AUC: 0.845
  IC50: 9950 nM
JQ1; [1]
  AUC: 0.974
  IC50: > 1000 nM
JQ1; [2]
  AUC: 0.973
  IC50: > 2560 nM
YM155
  AUC: 0.983
  IC50: > 5120 nM
OSI-906
  AUC: 0.968
  IC50: > 2560 nM
Belinostat
  AUC: 0.974
  IC50: > 20000 nM
SB-715992
  AUC: 0.984
  IC50: > 128 nM
FTI-277
  AUC: 0.982
  IC50: > 1020 nM
JNK Inhibitor VIII
  AUC: 0.968
  IC50: > 10000 nM
AMG-706
  AUC: 0.931
  IC50: > 2000 nM
NSC-207895
  AUC: 0.984
  IC50: > 20000 nM
Docetaxel
  AUC: 0.883
  IC50: > 12.5 nM
